Results from publication PMC4336329 (PLoS ONE, 2015).
Among all 310,000 compounds or so, about 14,000 (4.5%) showed an effect of 50% or more. Effects have a minus sign here. Some of the results follow.
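Further: peak tail current of the secondary pulse compared with the same well before compound.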

What follows are compounds tested against human ether-à-go-go-related gene (hERG) potassium channel (human, UniProt Q12809) (assay: primary screen, population patch clamp on CHO cells stably expressing hERG).
Sequence of human ether-à-go-go-related gene (hERG) potassium channel (Q12809 whole entry, looked up): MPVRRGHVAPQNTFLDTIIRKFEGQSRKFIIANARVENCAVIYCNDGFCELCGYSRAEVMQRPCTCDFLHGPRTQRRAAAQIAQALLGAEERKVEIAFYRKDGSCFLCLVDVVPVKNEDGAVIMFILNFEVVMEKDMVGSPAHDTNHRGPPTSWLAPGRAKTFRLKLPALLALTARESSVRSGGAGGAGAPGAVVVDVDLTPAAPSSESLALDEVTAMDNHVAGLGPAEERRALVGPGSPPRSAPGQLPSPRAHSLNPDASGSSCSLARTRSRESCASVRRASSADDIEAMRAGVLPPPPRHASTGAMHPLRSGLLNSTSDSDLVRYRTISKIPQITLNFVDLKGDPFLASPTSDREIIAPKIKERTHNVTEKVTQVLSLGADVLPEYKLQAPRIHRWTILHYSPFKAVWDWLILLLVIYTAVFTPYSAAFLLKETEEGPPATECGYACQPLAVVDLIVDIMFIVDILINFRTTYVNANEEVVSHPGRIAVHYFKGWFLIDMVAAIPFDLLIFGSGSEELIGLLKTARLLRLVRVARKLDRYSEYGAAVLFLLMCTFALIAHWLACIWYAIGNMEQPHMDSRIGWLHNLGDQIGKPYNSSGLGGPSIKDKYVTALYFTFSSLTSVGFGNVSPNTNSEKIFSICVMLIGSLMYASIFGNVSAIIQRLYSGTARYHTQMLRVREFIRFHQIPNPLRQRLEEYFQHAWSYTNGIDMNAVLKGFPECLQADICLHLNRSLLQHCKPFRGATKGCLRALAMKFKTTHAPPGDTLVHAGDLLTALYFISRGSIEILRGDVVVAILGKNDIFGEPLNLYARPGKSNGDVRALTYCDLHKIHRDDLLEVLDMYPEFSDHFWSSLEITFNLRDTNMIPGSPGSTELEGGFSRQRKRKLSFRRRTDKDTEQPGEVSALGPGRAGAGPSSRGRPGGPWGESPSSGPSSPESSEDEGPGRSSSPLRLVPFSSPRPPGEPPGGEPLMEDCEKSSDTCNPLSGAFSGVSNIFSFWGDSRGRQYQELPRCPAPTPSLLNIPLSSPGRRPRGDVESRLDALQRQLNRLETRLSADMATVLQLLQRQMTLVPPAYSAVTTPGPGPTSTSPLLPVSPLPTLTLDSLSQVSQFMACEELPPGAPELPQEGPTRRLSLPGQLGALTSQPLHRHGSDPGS
In the case of COc1ccc(NC(=O)CCCNC(=O)c2ccc(Cl)cc2)cc1OC, the “hERG current change (%, negative = inhibition) at 10uM” value is reported as 6.96%.
In the case of O=C(Nc1nccs1)c1cccc(NC(=O)C2CC2)c1, the “hERG current change (%, negative = inhibition) at 10uM” value is reported as -15.7%.
For COc1ccc(C2SCC(=O)N2CCCN(C)C)cc1.Cl (stereo not shown), the “hERG current change (%, negative = inhibition) at 10uM” value was 3.16%.
In the case of CN(C)S(=O)(=O)Oc1cccc(C(=O)Nc2ccccc2Cl)c1, the “hERG current change (%, negative = inhibition) at 10uM” value is reported as -47.2%.
For COC(=O)c1sc(NC(=O)c2ccc(C)o2)nc1C, the “hERG current change (%, negative = inhibition) at 10uM” value was -3.35%.
For C=CCn1c(SC)nc2sc3c(c2c1=O)CCc1ccccc1-3, the “hERG current change (%, negative = inhibition) at 10uM” value was 10.3%.
CC(NCc1ccccc1C(F)(F)F)C(O)c1ccccc1.Cl (stereo not shown) was tested, and the “hERG current change (%, negative = inhibition) at 10uM” value was -7.73%.
With S=c1nc(-c2cc(Cl)ccc2Cl)[nH][nH]1 the “hERG current change (%, negative = inhibition) at 10uM” value was 16.4%.
COc1ccc(CC(=O)OCCc2cc3cc(OC)c(OC)cc3c(=O)o2)cc1 was tested, and the “hERG current change (%, negative = inhibition) at 10uM” value was -3.83%.
CC(=O)Nc1sc2c(c1C(c1ccccc1Cl)N1CCN(CCO)CC1)CCCC2 (stereo not shown) was tested, and the “hERG current change (%, negative = inhibition) at 10uM” value was -25.2%.
CCOC(=O)c1c(NC(=O)C2COc3ccccc3O2)sc(C)c1C (stereo not shown) was tested, and the “hERG current change (%, negative = inhibition) at 10uM” value was -1.9%.
COC(=O)/C(=C/c1ccc(F)cc1)NC(C)=O was tested, and the “hERG current change (%, negative = inhibition) at 10uM” value was -0.211%.
In the case of Cc1oc(-c2cccs2)nc1CS(=O)CC(=O)NCCCN1CC(C)CC(C)C1 (stereo not shown), the “hERG current change (%, negative = inhibition) at 10uM” value is reported as -6.76%.
In the case of CC(=O)N(C)c1ccc(N=Nc2c(C)[nH]n(C(N)=S)c2=O)cc1, the “hERG current change (%, negative = inhibition) at 10uM” value is reported as 5.56%.
With O=C(O)COc1ccccc1/C=N/NC(=O)c1ccc2c(c1)OCCO2 the “hERG current change (%, negative = inhibition) at 10uM” value was -2.93%.
In the case of COc1cc2[nH]ccc(=O)c2cc1OC, the “hERG current change (%, negative = inhibition) at 10uM” value is reported as 3.62%.
In the case of O=C(NC(=S)Nc1ccccc1Br)C1CCCC1, the “hERG current change (%, negative = inhibition) at 10uM” value is reported as 17%.
CCOC(=O)c1cc(/C(C)=N/OC(=O)c2ccc(Cl)cc2)on1 was tested, and the “hERG current change (%, negative = inhibition) at 10uM” value was 12%.
Cc1ccc(-c2nc(N)n(C(=O)c3ccco3)n2)cc1 was tested, and the “hERG current change (%, negative = inhibition) at 10uM” value was 24.9%.
O=C(CN1CCN(C(=O)c2ccco2)CC1)Nc1ccc(F)cc1F was tested, and the “hERG current change (%, negative = inhibition) at 10uM” value was -49.6%.
For CCCc1ccccc1OCCNC(C)=O, the “hERG current change (%, negative = inhibition) at 10uM” value was 12.4%.
With COc1ccc(CCN(Cc2cc3cc(C)ccc3[nH]c2=O)C(C)=O)cc1OC the “hERG current change (%, negative = inhibition) at 10uM” value was -6.87%.
With Cc1ccc(OCC2Cn3c(nc4c3c(=O)[nH]c(=O)n4C)O2)cc1C (stereo not shown) the “hERG current change (%, negative = inhibition) at 10uM” value was 3.15%.
With O=C(CN1C(=O)NC2(CCOc3ccccc32)C1=O)c1ccc(F)c(F)c1 (stereo not shown) the “hERG current change (%, negative = inhibition) at 10uM” value was -47%.
CCOC(=O)C(O)(c1ccc(N=Cc2ccccc2O)c(C)c1)C(F)(F)F (stereo not shown) was tested, and the “hERG current change (%, negative = inhibition) at 10uM” value was 11.1%.
O=C(CSc1nnc(SCc2ccccc2)s1)N/N=C/c1ccc(Cl)cc1Cl was tested, and the “hERG current change (%, negative = inhibition) at 10uM” value was -5.88%.
Cc1ccc(N(CC(=O)NCc2ccco2)C(=O)CCC(=O)Nc2ccccn2)cc1C was tested, and the “hERG current change (%, negative = inhibition) at 10uM” value was 4.43%.
With O=C(c1ccccc1)C1CCCN(Cc2nc(-c3cnccn3)no2)C1 (stereo not shown) the “hERG current change (%, negative = inhibition) at 10uM” value was 10.2%.
O=C(Oc1ccc(C(=S)N2CCOCC2)cc1)c1ccccc1F was tested, and the “hERG current change (%, negative = inhibition) at 10uM” value was -5.36%.
With CC(=O)N(Cc1cc2ccccc2[nH]c1=O)c1ccc(C)cc1 the “hERG current change (%, negative = inhibition) at 10uM” value was -9.66%.
Cc1ccc(O)c(NC(=O)c2noc3c2CCCCC3)c1 was tested, and the “hERG current change (%, negative = inhibition) at 10uM” value was 7.08%.
For Cc1cccc(NC(=O)N2CC3CC(C2)c2cccc(=O)n2C3)c1 (stereo not shown), the “hERG current change (%, negative = inhibition) at 10uM” value was 16.3%.
For COc1ccc(Cl)cc1NC(=O)C(C)N1CCN(C/C=C/c2ccccc2)CC1.O=C(O)C(=O)O (stereo not shown), the “hERG current change (%, negative = inhibition) at 10uM” value was -63.4%.
With Cc1cccc(C(=O)O/N=C2\CCS(=O)(=O)c3sccc32)c1 the “hERG current change (%, negative = inhibition) at 10uM” value was 1.16%.
In the case of CCc1ccc(NC(=O)c2onc(C)c2Cl)cc1, the “hERG current change (%, negative = inhibition) at 10uM” value is reported as 0.736%.
Cc1cc(C)c(OCC(=O)Nc2nnc(-c3ccco3)o2)c(C)c1 was tested, and the “hERG current change (%, negative = inhibition) at 10uM” value was 1.74%.
In the case of COc1ccc(-c2cc(-c3nnc(COC(=O)c4ccc(O)cc4)o3)c3ccccc3n2)cc1OC, the “hERG current change (%, negative = inhibition) at 10uM” value is reported as 16.9%.
For CCOC(=O)N1CCN(CCC(=O)Nc2ccc(OC(F)(F)F)cc2)CC1, the “hERG current change (%, negative = inhibition) at 10uM” value was -63.3%.
In the case of O=C(Nc1nc2c(ccc3ccccc32)s1)c1cc([N+](=O)[O-])ccc1N1CCOCC1, the “hERG current change (%, negative = inhibition) at 10uM” value is reported as 9.84%.
For O=C(O)Cn1cc(C(=O)C2CC2)c2ccccc21, the “hERG current change (%, negative = inhibition) at 10uM” value was 11.3%.
c1ccc2c(c1)C(=Nn1cnnc1)c1ccccc1-2 was tested, and the “hERG current change (%, negative = inhibition) at 10uM” value was 11.5%.
O=C(O)CCCNC1=NCCC1 was tested, and the “hERG current change (%, negative = inhibition) at 10uM” value was 20.6%.
With COC(=O)c1cc(C)sc1NC(=O)CN1CCN(C(=O)C2CCCO2)CC1 (stereo not shown) the “hERG current change (%, negative = inhibition) at 10uM” value was -34.7%.
In the case of COc1ccc(S(=O)(=O)CCC(=O)NCCc2ccc(Cl)cc2)cc1, the “hERG current change (%, negative = inhibition) at 10uM” value is reported as -16.4%.
In the case of COc1ccc(N2CCN(Cc3oc(CO)cc(=O)c3O)CC2)cc1, the “hERG current change (%, negative = inhibition) at 10uM” value is reported as -7.53%.
With O=[N+]([O-])c1cccc(-n2nnnc2CNCc2ccccc2)c1 the “hERG current change (%, negative = inhibition) at 10uM” value was -16.7%.
In the case of CC1CC(C)CN(C(=O)CSc2ncnc3sccc23)C1 (stereo not shown), the “hERG current change (%, negative = inhibition) at 10uM” value is reported as 16.7%.
With COC(=O)[C@H]1C[C@@H]1[C@H](NS(=O)(=O)c1ccccc1)c1ccccc1 the “hERG current change (%, negative = inhibition) at 10uM” value was 6.53%.
CCOc1ncccc1C(=O)OCC(=O)NCCc1ccc(S(N)(=O)=O)cc1 was tested, and the “hERG current change (%, negative = inhibition) at 10uM” value was -18.3%.
In the case of CC1CCCC(C)N1S(=O)(=O)c1ccc(NC(=O)CNC2CCCC2)cc1 (stereo not shown), the “hERG current change (%, negative = inhibition) at 10uM” value is reported as -20.1%.
COc1ccccc1NS(=O)(=O)c1cccc(NC(=O)c2sc3ccccc3c2Cl)c1 was tested, and the “hERG current change (%, negative = inhibition) at 10uM” value was 6.42%.
CCc1ccc(OCc2ccc(C(=O)O)o2)cc1 was tested, and the “hERG current change (%, negative = inhibition) at 10uM” value was 23.2%.
COc1cccc(NC(=O)C2CCCN(S(=O)(=O)c3cccc4nonc34)C2)c1 (stereo not shown) was tested, and the “hERG current change (%, negative = inhibition) at 10uM” value was 15.9%.
For COC(=O)c1ccc(CNC(=O)C(NC(=O)c2ccco2)C(C)C)cc1 (stereo not shown), the “hERG current change (%, negative = inhibition) at 10uM” value was -1.29%.
COc1ccccc1CNC(=O)CCCNC(=O)c1ccc(Cl)cc1 was tested, and the “hERG current change (%, negative = inhibition) at 10uM” value was 5.99%.
In the case of COc1ccc(NS(=O)(=O)c2cn(C)cn2)c(OC)c1, the “hERG current change (%, negative = inhibition) at 10uM” value is reported as 19.5%.
In the case of C/C(=N\Nc1nc(Nc2ccccc2)nc(N2CCOCC2)n1)c1cccs1, the “hERG current change (%, negative = inhibition) at 10uM” value is reported as -8.97%.
For CCOc1ccc(-c2cccc(NC(=O)c3cccs3)c2)nn1, the “hERG current change (%, negative = inhibition) at 10uM” value was -33.8%.
